Source: the RNAGym collection of RNA variant scans (doi:10.1093/nar/gkz1192)
The source gives no read counts; variants with many changes may rest on few reads.

B1: CPEB3 Ribozyme (parent)
chain: UAACAGGGGGCCACAGCAGAAGCGUUCACGUCGCAGCCCCUGUCAGAUUCUGGUGAAUCUGCGAAUUCUGCUGUAUAUCUC

Variants of: B1
Experiment: self-cleavage, relative activity (ratio to wild type); higher = more cleavage; in vitro, sequencing
Procedure, shortened: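 For each CPEB3 ribozyme variant, relative activity is its cleaved/total read fraction divided by the unmutated ribozyme's. Barcoded error-prone PCR libraries were transcribed by T7 RNA polymerase (5 hours, 37°C) and held in DNase I for 15 min before an EDTA stop, with cleavage occurring throughout. Template-switching reverse transcription and Illumina sequencing were used to read the RNAs. A 5-read minimum applied, and results are the mean of three batches.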

Row | Variant | self-cleavage
1 | UAACAGGGUGCCACAGCAGAAGCGUUCGCGUCGCAGCCCCUGUCAGAUUCCGGUGAAUCUGCGAAUUCUGCUGUAUAUCUC | 0.21
2 | UAACAGGGUGCCACAGCAGAGGAGUUCACGUCGCAGCCCCUGUCAGAUUCUGGUGAAUCUGCGAAUUCUGCUGUAUAUCUC | 0.12
3 | UAACAGGGUGCCACAGCAGAAGCGUCCGCGUCGCAGCCCCUGUCAGAUUCUGGUGAAUCUGCGAAUUCUGCUGUAUGUCUC | 0.05
4 | UAACAGGGUGCCACAGCAGAAGCGUUCACGUCGUAGCCCCUGUCAGAUCCUGGUGAAUCUGCGUAUUCUGCUGUAUAUCUC | 0.09
5 | UAACAGGGCCCCACAGCAGAAGCGUUCACGUCGCGGCCCCUGUCAGAUUCUGGUGAGUCUGCGAAUUCUCCUGUAUAUCUC | 0.16
6 | UAACAGGGUGCCACAGCAGAAGCGCUCACGUCGCGGCCCCUGUCAGAUUCUGGUGAAUCUGCGAAUUCUGCUGUAUAUCUC | 0.07
7 | UAACAGGGUGCCUCAGCAGGAGCGUUCACGUCGCAGCCCCUGUCAAAUUCUGGUGAAUCUGCGAAUUCUGCUGUAUAUCUC | 0.43
8 | UAACAGGGUGCCACAGCAGAAGCGUCCACGUCGCAGCCCCUGUCAGAUUCUGGUGAAUUUGAGAAUUCUGCUGUAUAUCUC | 0.09
9 | UAACAGGGUGCCGCAGCGGAAGCGUUCGCGUCGCAGCCCCUGUCAGAUUCUGGUGAAUCUGCGAAUUCUGCUGUAUACCUC | 0.29
10 | UAACAGGGUGCCACAGCAGAAGCGUUCAGGUCGCAGCCCCCGUCAGACUCUGGUGAAUCUGCGAAUUCUGCCGUAUAUCUC | 0
11 | UAACAGGGUGCCACAGCAGAAGCGUUCACGUCGCAGCCCUUGUCAGAUUCUGGUGGAUCUGCGAAUUCUGCUGUAUAUCUC | 0.26
12 | UAACAGGGUGCCACAGCAGAAGCGAUCACGUCGCAGCCCCUGUCAGAUUCUGGUGAAUCUGCGGAUUCUGCUGUAUAUCUC | 0.33
13 | UAACAGGGUGCCACAGCAGAAGCAUUCACGUCGCAGCCCCUGUCAGAUUCCGGUGAUUCUGCGAAUUCUGCUGUAUAUCAC | 0.07
14 | UAACAGGGCGCCACAGCAGAAGCGUUCACGUCGCAGCCCCUGUCAGAUUCUGCUGAAUCUGCGAAUUCUGCUGUAUAUCCC | 0.16
15 | UAACAGGGUGCCACGGCAGAAGCGUUCGCGUCGCAGCCCCUGUCAGAUUCUGGUGAAUCUGCGAAUUCUGCUGUAUAUCUC | 0.1
16 | UAACAGGGUGCCACGGCAGAAGCGUUCACGUCGCAGCUCCUGUCAGAUUCUGGUGAAUCUGCGAAUUCCGCUGUAUAUCUC | 0.07
17 | UAACAGGGUGCCACAGCAGAAGCGUUCACGUCGUAGCCCCCGUCAGAUUCUGGUGAAUCCGCGAGUUCUGCUGUAUAUCUC | 0.05
18 | UAACAGGGUGCCACAGCAGAAGCGUUCACGGCGCGGCCCCUGUCAGAUUCUGGUGAGUCUGCGAAUCCUGCUGUAUAUCUC | 0.15
19 | UAACAGGGUGCCACCGCAGAAGCGUUCACUUCGCAGCCCCUGUCAGAUUCUGGUGAAUCUGCGAAUUCUGCUGUAUAUCUC | 0.13
20 | UAACAGGGUGCCACAGCAGAAGCGUACAUGUCGCUGCCCCCGUCAGAUUCUGGUGAAUCUGCGAAUUCCGCUGUAUAUCCC | 0.03
21 | UAACAGGGUGCCACGGCAGAAGCGUUCACGUCGCAGCCCCUGUCAGAUUCUGGUGAAUCUGCGAAUUCUGCUAUAUAUCGC | 0.37
22 | UAACAGGGUGCCACAGCGGAAGCGUUCACGUCGCAGCCCCUGCCAGAUUCUGGUGAAUCUGCGAAUUCUGCUGUGUAUCUC | 0.04
23 | UAACAGGGUGCCACAGCAGAAGCGUUCACGUCGCAGCCCCUGUCAGACUCUGGUGGAUCCGCGAAUUCUACUGUAUAUCUC | 0.04

Row | Variant | self-cleavage
24 | UAACAGGGUGCCACAGCAGAAUCGUUCACGUCGCAGCCCCUGUCAGAUUCUGGUGAAUCUGCGAAUUCUGCUGUAAAUCUC | 0.03
25 | UAACAGGGUGCCACAGCAGGAGCGUUCGCGUCGCACCCCCUGUCAGAUUCUGGAGAGUCUGCGAAUUCUGCUGUAUAUCUC | 0.13
26 | UAACAGGGCGCCACAGCAGAGGCGUUCACGUCGCAGCCCCUGUCAGAUUCUGGUGAAUCCGCGAAUUCUGCCGUAUAUCUC | 0.47
27 | UAACAGGGUGCCACAGCAGAAUCGUUCACGUCGCAGCCCCUGUCAGAUUCUGGUGAGUCUGCGAAUUCUGCUGUAUAUCUC | 0.13
28 | UAACAGGGUGCUACAGCAGAAGCGUUCACGUCGCGGCCCCUGUCAGAUUCUGGUGAAUCUGCGAAUUCUGCUGUACAUCUC | 0.24
29 | UAACAGGGUGCCACAGCAGAGGCGUUCACGUCGCAGCCCCUGUCAGAUUCCGGUGAAUCAGCGAAUUCUGCUGUAUAUCCC | 0.05
30 | UAACAGGGUGCCACAGCAGAAGCGUUCAUGUCGCGGCCCCUGUCAGAUUCUGGUGAAUCUGCGAAUCCUGCUGUAUAUCUC | 0.1
31 | UAACAGGGUGCCACAGCAGAAGCGUUCACGUCGCAGCCCCUGACAGAUUCUGGUGAAUCUGCGAAUUCUGCUGUAUUUCUC | 0.35
32 | UAACAGGGCGCCACAGCAGAAGCGUUCACGUCGCAGCCCCUGUCAGAUUCUGGUGAAUCUGCGGACUCAGCUGUAUAUCCC | 0.08
33 | UAACAGGGCGCCACAGCAGAAGCGUUCACGUCGCAGCCCCUGUUAGAUUCUGGUGAAUCUGCGAAUUCUGCUGUAUGUCUC | 0.16
34 | UAACAGGGCGCCACAGCACGAGCGUUCACGUCGCAGCCCCUGUCAGAUUCUGGUGAAUCUGCGAAUUCUGCUGUAUAUCUC | 0.08
35 | UAACAGGGUGCCACAGCAGAGGCGUUCACGUCGCAGCCCCUGACAGAGUCUGGUGAAUCUGCGGAUUCUGCUGUAUAUCUC | 0.08
36 | UAACAGGGCGCCACAGCAGAAGCGUUCACGUCGCAGCCCCUGUCAGAUUCCGGUGAAUCAGCGAAUUCUGCUGUAUGUCUC | 0.09
37 | UAACAGGGUGGCACAGCAGGAGCGUCCACGUCGCGGCCCCCGUCAGAUUCUGGUGAAUCUGCGAAUUCAGCUGUAUAUCUC | 0.04
38 | UAACAGGGCGCCACAGCAGAAGCGUUCACGUCGCAGCCCCUGUCAGAUUCUGGUGAAUCUGCGGAUUCUGCUGUACAUCUC | 0.2
39 | UAACAGGGUGCCACAGCAGAAGCGUUCACGACGCAGCCCCUGUCAGAUUCUGGUGAAUCUGCGAAUUCCGCCGUAUAUCUC | 0.1
40 | UAACAGGGUUCCACAGCAGAAGCGUUCACGUCGCAGCCCCAGUCAGAUUCUGGAGAAUCUGCGUGUUCUGCUGCAUAUCUC | 0.04
41 | UAACAGGGUGCCACAGCAGAAGCGUUCACGUCGCAGCCCCCGCCAGAUUCUGGUGAAUCUGCGAAUUCUGCUGUAAAUCCC | 0.05
42 | UAACAGGGCGCCACAGCAGAAGCGUUCACGUCGCAGCCCAUGUCAGAUUCUGGUGAAUCUGCGAAUGCCGCGGUAUAUCCC | 0.02
43 | UAACAGGGUGCCACAGCAGAAGCGUUCACGUCGCAGCCCCUGCCAGAUUCUGGUGGAUCUGCGAAUUCUGCUGUAUAUCUC | 0.17
44 | UAACAGGGUGCCACAGCAGGAGCGUUCACGUCGCAGCCCCUGUCAGAUUCUGGUGAACCUGCGAAUUCCGCUGUAUAUCUC | 0.39
45 | UAACAGGGUGCCGCAGCAGAAGCGUCCACGUCGCAGCCCCUGUCAGAUUCUGGUGAAUCUGCGGAUUCUGCUGUAUAUCUC | 0.25
46 | UAACAGGGCGACACAGCAGAAGCUUUCACGUCGCGGCCCCUGUCAGAUUCUGGUGAGUCUGCGAAUCCUGCUGUAUAACUC | 0.03

Row | Variant | self-cleavage
47 | UAACAGGGUGCCACAGCAGAAGCGUUCACGUCGCAGCCCCUGUUAGAUUCUGGUGAAUCUGCGAAUUCUGCUGUAUGUCUC | 0.1
48 | UAACAGGGUGCCAUAGCAGAAGCGUUCGCGUCGUAGCCCCUGUCAGAUUCUGGUGAAUCUGCGAAUUCAGCUGUAUAUCUC | 0.04
49 | UAACAGGGUGCCACAGCAGAAGCGUUCACGUCGCAGCCCCUGUCAGAUUCUAGUGAAUCUGCGAAUUCUGCUGUGUAUCUC | 0.12
50 | UAACAGGGUGCCACAGCAGAAGCGUCCACGUUGCAGCCCCUGUCAGAUUCUGGUGAAUCUGCGAAUUCUGCUGUAUAUCUC | 0.06
51 | UAACAGGGUGCCGCAGCAGAAGCGUUCACGUCGCAGCCCCUGUCGGAUUCUGGUGAAUCUGCGAAUUCUGCUGUAUGUCUC | 0.06
52 | UAACAGGGUGCCACAGCUGAGGCGUUCACGUCGCAGCCCCUGUCUGAUUCUGGUGAAUCUGCGAAUUAUGCUGUAUAUCCC | 0.33
53 | UAACAGGGUGCCACAGCAGAAGCGUCCACGUCGCAGCCCCAGUCAGAUUCUGGUGAAUCUGCGAAUUCUGCUGUAUGUCUC | 0.15
54 | UAACAGGGCGCCACAGCAGAAGCGUUCACGUCGCAGCCCCUGUCAGAUUCUGGGGGAUCCGCGAACUCUGCUGUAUAUCUC | 0.06
55 | UAACAGGGUGCCACAGCAGAAGCGUUCACGUCGCAGCCCCAGUCAGAUUCUGGUGGACCUGCGAAUUCUGCUGUAUAUCUC | 0.18
56 | UAACAGGGUGCCACAGCAGAAGCGUUCACGUCGCAGCCCCUGUCAGAUUCUGGUGUAUCUGCGAAUUCUGCUGUACAUCUC | 0.2
57 | UAACAGGGUGCCACAGCAGAAGCAUUCACGUCGCAGCCCCUGACAGAUUCUGGUGGAUCUGCGAAUUCUGCAGUAUAUCCC | 0.33
58 | UAACAGGGUGCCACAGCAGAAGCGCUCACGUCGCAGCCCCUGUCAGAUUCUGGUGAAUCUGCGAAUUCUGCUGUAUGUCUC | 0.18
59 | UAACAGGGUGCCACAGCAGUAGCGUUCACGUCCCAGCCCCUGUCUGAUUCUGGUGAAUCUGCGAAUUCAGCGGUAUAUCUC | 0.02
60 | UAACAGGGUGCCACAGCGGAAGCGUUCACGUCGCAGCCCCUGUCGGAUUCUGGUGAAUCUGCCAAUUCUGCUGUAUAUCUC | 0.04
61 | UAACAGGGUGCCACUGCAGAAGCGUUCGCGUCGCAGCCCCUGUCAGAUUCUGGUGAAUCUGCGAACUCUGCUGUAUAUCUC | 0.14
62 | UAACAGGGUGCCACUGCAGAAUCGUACACGUCGCAGCCCCUGUCGGAUUCUGGUGAAUCUGCGAAUUCUGCUGUAUAUCUC | 0.17
63 | UAACAGGGUGCCACAGCAGAAGCGUUCACGUCGCCGCCCCUGUCAGAUUCUAGUGAAUCUGCGAAUUCUGCCGUAUAUCUC | 0.15
64 | UAACAGGGUGCCACAGCAGAAGCGUUCACGUCGCAGCUCCAGUCAGAUUCUGGGGAAUCUGCGAAUUCUGCUGUAUACCUC | 0.06
65 | UAACAGGGUGCCACAGCAGAAGCGUUCACGUCGCAGCCCCAGUCAGGUUCUGGUGAAUCUGCGAAUUCUGCUGUAUGUCUC | 0.11
66 | UAACAGGGUGCCACAGCAGAAGCGUUCACGUCGCAGCCCCUGUCAGAUUCUGGUGGUACUGCGAAUUCUGCUGUAUAUCCC | 0.14
67 | UAACAGGGUGCCACAGCAGAAACGUUCACGUAGCAGCCCCUGACAGAUUCUGGUGAAUCUGCGGAAUCUGCUGUAUAUCUC | 0.03
68 | UAACAGGGUGCCACGGCUGCAGCGUUCUCGUCGCAGCCCCUGUCAGAUUCUGGUGAAUCUGCGAACUCUGCUGUAUAUCUC | 0.04
